{"source": "the supplement of paper PMC10126150", "note": "Sequences with one replicate were seen in a single cluster, so their values are uncertain.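 Further: ATP exposure 15 min at 22 °C before imaging.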", "data": [{"test_system": "ATP", "assay": "switch fluorescence ratio, 500 uM ATP over buffer (Cy3 cluster intensity, sum of 5 cycles each) (fold (ratio)); higher = stronger signal-on switching upon ATP binding; sequences stand for … in TCGTCGGCAGCGTCAGATGTGTATAAGAGACAGTTTTTTTTTTTTTTTTTTTTTTTTT…TC", "details": "aptamer strand: ATP DNA aptamer (quencher-CACCTGGGGGAGTATTGCGGAGGAAGG + anchor), 100 nM annealed; ATP concentration: 500 uM; one replicate", "outline": "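Five buffer/ATP imaging cycles were run on Cy3-labelled switching-strand clusters on a modified Illumina MiSeq flow-cell, with NaOH stripping and re-annealing between cycles. In each cycle, clusters annealed to 100 nM quencher-labelled ATP aptamer were imaged in selection buffer, then after 15 min with 500 uM ATP at 22 °C. Per cluster, the fluorescence ratio is summed target-cycle over summed buffer-cycle Cy3 intensity, averaged per switch-domain sequence. Only clusters within 100-1000 RFU were kept.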", "values": [{"sequence": "TACGGGATCT", "switch fluorescence ratio": 1.02}, {"sequence": "TACGGGGCGT", "switch fluorescence ratio": 1.01}, {"sequence": "TACGGGGTAC", "switch fluorescence ratio": 1.33}, {"sequence": "TACGGGTGGT", "switch fluorescence ratio": 0.988}, {"sequence": "TACGGTAGGG", "switch fluorescence ratio": 1.09}, {"sequence": "TACGGTTTGC", "switch fluorescence ratio": 0.986}, {"sequence": "TACGTACGGG", "switch fluorescence ratio": 1.75}, {"sequence": "TACGTATATC", "switch fluorescence ratio": 2.07}, {"sequence": "TACGTATGCA", "switch fluorescence ratio": 1.05}, {"sequence": "TACGTCGGTT", "switch fluorescence ratio": 1.07}, {"sequence": "TACGTCTAGT", "switch fluorescence ratio": 0.985}, {"sequence": "TACGTGGTG", "switch fluorescence ratio": 1.02}, {"sequence": "TACGTGGTTT", "switch fluorescence ratio": 1.03}, {"sequence": "TACGTTCAGT", "switch fluorescence ratio": 0.972}, {"sequence": "TACGTTCGAA", "switch fluorescence ratio": 0.975}, {"sequence": "TACTAAACGC", "switch fluorescence ratio": 1.15}, {"sequence": "TACTAAAGCA", "switch fluorescence ratio": 1.1}, {"sequence": "TACTAACAGG", "switch fluorescence ratio": 1.26}, {"sequence": "TACTACCATC", "switch fluorescence ratio": 1.15}, {"sequence": "TACTAGGGGG", "switch fluorescence ratio": 0.965}, {"sequence": "TACTATCCTT", "switch fluorescence ratio": 1.01}, {"sequence": "TACTCAGGGA", "switch fluorescence ratio": 1.18}, {"sequence": "TACTCCCTTG", "switch fluorescence ratio": 1.46}, {"sequence": "TACTCGAGC", "switch fluorescence ratio": 1.01}, {"sequence": "TACTCGCCC", "switch fluorescence ratio": 1.59}, {"sequence": "TACTCTACTA", "switch fluorescence ratio": 1.24}, {"sequence": "TACTGCCTGT", "switch fluorescence ratio": 0.989}, {"sequence": "TACTGGACAT", "switch fluorescence ratio": 1.18}, {"sequence": "TACTGGGACC", "switch fluorescence ratio": 1.06}, {"sequence": "TACTGGTGGG", "switch fluorescence ratio": 0.963}, {"sequence": "TACTGTCACG", "switch fluorescence ratio": 1.28}, {"sequence": "TACTGTCCGG", "switch fluorescence ratio": 1.02}, {"sequence": "TACTGTGGCG", "switch fluorescence ratio": 0.98}, {"sequence": "TACTGTGGGA", "switch fluorescence ratio": 1.03}, {"sequence": "TACTGTTTAT", "switch fluorescence ratio": 1.04}, {"sequence": "TACTGTTTTC", "switch fluorescence ratio": 1.01}, {"sequence": "TACTTAACTC", "switch fluorescence ratio": 1.13}, {"sequence": "TACTTAAG", "switch fluorescence ratio": 1}, {"sequence": "TACTTCCATA", "switch fluorescence ratio": 1.1}, {"sequence": "TACTTCTCCT", "switch fluorescence ratio": 1.02}, {"sequence": "TACTTGATCG", "switch fluorescence ratio": 1.02}, {"sequence": "TACTTGCAGA", "switch fluorescence ratio": 1.03}, {"sequence": "TACTTGCAGG", "switch fluorescence ratio": 1.03}, {"sequence": "TACTTGTCTA", "switch fluorescence ratio": 0.995}, {"sequence": "TACTTTGTGT", "switch fluorescence ratio": 1.02}, {"sequence": "TAGAAAACAT", "switch fluorescence ratio": 1.01}, {"sequence": "TAGAACAAGA", "switch fluorescence ratio": 1.01}, {"sequence": "TAGAACACGA", "switch fluorescence ratio": 0.998}, {"sequence": "TAGAAGAGTA", "switch fluorescence ratio": 0.983}, {"sequence": "TAGAAGCTCG", "switch fluorescence ratio": 1.01}, {"sequence": "TAGAAGGCGA", "switch fluorescence ratio": 1.01}, {"sequence": "TAGAAGTGGA", "switch fluorescence ratio": 1.01}, {"sequence": "TAGAATAGGG", "switch fluorescence ratio": 1.03}, {"sequence": "TAGACACTG", "switch fluorescence ratio": 1.11}, {"sequence": "TAGACCCG", "switch fluorescence ratio": 1.04}, {"sequence": "TAGACCGTAA", "switch fluorescence ratio": 1.12}, {"sequence": "TAGACGATAG", "switch fluorescence ratio": 0.941}, {"sequence": "TAGACTAGTC", "switch fluorescence ratio": 1.02}, {"sequence": "TAGACTCTGC", "switch fluorescence ratio": 1.12}, {"sequence": "TAGACTTGCT", "switch fluorescence ratio": 0.992}, {"sequence": "TAGAGAACGG", "switch fluorescence ratio": 0.995}, {"sequence": "TAGAGATACC", "switch fluorescence ratio": 1.02}, {"sequence": "TAGAGATCAA", "switch fluorescence ratio": 0.959}, {"sequence": "TAGAGCCTGT", "switch fluorescence ratio": 0.971}, {"sequence": "TAGAGGTGCG", "switch fluorescence ratio": 1.1}, {"sequence": "TAGAGGTGGC", "switch fluorescence ratio": 0.963}, {"sequence": "TAGAGTCAGA", "switch fluorescence ratio": 1.04}, {"sequence": "TAGAGTGCTG", "switch fluorescence ratio": 1.09}, {"sequence": "TAGATAAAAG", "switch fluorescence ratio": 1.01}, {"sequence": "TAGATACCTT", "switch fluorescence ratio": 1.14}, {"sequence": "TAGATATACC", "switch fluorescence ratio": 0.966}, {"sequence": "TAGATATGGA", "switch fluorescence ratio": 1.08}, {"sequence": "TAGATATTA", "switch fluorescence ratio": 1}, {"sequence": "TAGATCAGCA", "switch fluorescence ratio": 1.02}, {"sequence": "TAGATGATAA", "switch fluorescence ratio": 0.989}, {"sequence": "TAGATTAAAA", "switch fluorescence ratio": 0.995}, {"sequence": "TAGATTACG", "switch fluorescence ratio": 1.01}, {"sequence": "TAGCAAATAA", "switch fluorescence ratio": 1.42}, {"sequence": "TAGCACGGGT", "switch fluorescence ratio": 1.03}, {"sequence": "TAGCAGGGAT", "switch fluorescence ratio": 1.29}, {"sequence": "TAGCAGTAGT", "switch fluorescence ratio": 1.18}, {"sequence": "TAGCAGTCCG", "switch fluorescence ratio": 0.908}, {"sequence": "TAGCATAACA", "switch fluorescence ratio": 0.969}, {"sequence": "TAGCCATCGT", "switch fluorescence ratio": 1.04}, {"sequence": "TAGCCCTTGC", "switch fluorescence ratio": 1.03}, {"sequence": "TAGCCGGTGC", "switch fluorescence ratio": 1.07}, {"sequence": "TAGCCTAGGA", "switch fluorescence ratio": 1.07}, {"sequence": "TAGCCTGGTG", "switch fluorescence ratio": 1.57}, {"sequence": "TAGCCTGTAT", "switch fluorescence ratio": 0.994}, {"sequence": "TAGCGAGTTA", "switch fluorescence ratio": 1.01}, {"sequence": "TAGCGCACGT", "switch fluorescence ratio": 1.01}, {"sequence": "TAGCGCAGGA", "switch fluorescence ratio": 1.03}, {"sequence": "TAGCGCGGGG", "switch fluorescence ratio": 1.11}, {"sequence": "TAGCGCTTGT", "switch fluorescence ratio": 1.01}, {"sequence": "TAGCGGCCGG", "switch fluorescence ratio": 0.939}, {"sequence": "TAGCGGGGA", "switch fluorescence ratio": 1.07}, {"sequence": "TAGCGTTGTC", "switch fluorescence ratio": 0.986}, {"sequence": "TAGCTATCTG", "switch fluorescence ratio": 1.01}, {"sequence": "TAGCTATTTT", "switch fluorescence ratio": 1.16}, {"sequence": "TAGCTCAATA", "switch fluorescence ratio": 1.04}, {"sequence": "TAGCTCGGCG", "switch fluorescence ratio": 1.13}, {"sequence": "TAGCTCTTTC", "switch fluorescence ratio": 1.06}, {"sequence": "TAGCTGAAAT", "switch fluorescence ratio": 0.975}, {"sequence": "TAGCTGAATC", "switch fluorescence ratio": 1.03}, {"sequence": "TAGCTTGCTT", "switch fluorescence ratio": 0.966}, {"sequence": "TAGCTTGTAG", "switch fluorescence ratio": 1.07}, {"sequence": "TAGCTTTATC", "switch fluorescence ratio": 1.03}, {"sequence": "TAGCTTTGTT", "switch fluorescence ratio": 1.01}, {"sequence": "TAGGAACCTT", "switch fluorescence ratio": 1.79}, {"sequence": "TAGGAATAAA", "switch fluorescence ratio": 0.999}, {"sequence": "TAGGAATGGT", "switch fluorescence ratio": 1.03}, {"sequence": "TAGGAATTGC", "switch fluorescence ratio": 1.03}, {"sequence": "TAGGAGACAG", "switch fluorescence ratio": 0.984}, {"sequence": "TAGGAGCGTA", "switch fluorescence ratio": 1.13}, {"sequence": "TAGGAGCTTT", "switch fluorescence ratio": 1.02}, {"sequence": "TAGGAGTAT", "switch fluorescence ratio": 0.984}, {"sequence": "TAGGATATAC", "switch fluorescence ratio": 1.16}, {"sequence": "TAGGATGGTA", "switch fluorescence ratio": 1}, {"sequence": "TAGGATTGAT", "switch fluorescence ratio": 1.01}, {"sequence": "TAGGCATCAT", "switch fluorescence ratio": 1.03}, {"sequence": "TAGGCCCATT", "switch fluorescence ratio": 1.01}, {"sequence": "TAGGCCCGTC", "switch fluorescence ratio": 1.02}, {"sequence": "TAGGCGTAG", "switch fluorescence ratio": 1.03}, {"sequence": "TAGGCTAA", "switch fluorescence ratio": 1.02}, {"sequence": "TAGGCTTCCC", "switch fluorescence ratio": 1.1}, {"sequence": "TAGGCTTGCT", "switch fluorescence ratio": 1.01}, {"sequence": "TAGGGAAT", "switch fluorescence ratio": 1.01}, {"sequence": "TAGGGATTGT", "switch fluorescence ratio": 1.04}, {"sequence": "TAGGGCCCCT", "switch fluorescence ratio": 1}, {"sequence": "TAGGGCGCA", "switch fluorescence ratio": 0.977}, {"sequence": "TAGGGCTATA", "switch fluorescence ratio": 1.05}, {"sequence": "TAGGGGCGTC", "switch fluorescence ratio": 0.956}, {"sequence": "TAGGGGGAG", "switch fluorescence ratio": 1}, {"sequence": "TAGGGTAATG", "switch fluorescence ratio": 0.944}, {"sequence": "TAGGTAGCAA", "switch fluorescence ratio": 2.91}, {"sequence": "TAGGTCTGAG", "switch fluorescence ratio": 0.969}, {"sequence": "TAGGTTATA", "switch fluorescence ratio": 1.01}, {"sequence": "TAGTAAATAG", "switch fluorescence ratio": 1.04}, {"sequence": "TAGTAAGGTG", "switch fluorescence ratio": 1.08}, {"sequence": "TAGTACGAGA", "switch fluorescence ratio": 0.974}, {"sequence": "TAGTAGATAT", "switch fluorescence ratio": 1}, {"sequence": "TAGTAGGGAA", "switch fluorescence ratio": 0.986}, {"sequence": "TAGTATCTAC", "switch fluorescence ratio": 1.04}, {"sequence": "TAGTATCTTC", "switch fluorescence ratio": 0.995}, {"sequence": "TAGTATGCGC", "switch fluorescence ratio": 0.952}, {"sequence": "TAGTATTTTG", "switch fluorescence ratio": 0.987}, {"sequence": "TAGTCAGACA", "switch fluorescence ratio": 0.959}, {"sequence": "TAGTCGGGCT", "switch fluorescence ratio": 0.938}, {"sequence": "TAGTCTCAC", "switch fluorescence ratio": 1.01}, {"sequence": "TAGTCTCACG", "switch fluorescence ratio": 0.979}, {"sequence": "TAGTCTCCTA", "switch fluorescence ratio": 0.937}, {"sequence": "TAGTCTT", "switch fluorescence ratio": 0.965}, {"sequence": "TAGTGAGA", "switch fluorescence ratio": 1}, {"sequence": "TAGTGAGTGT", "switch fluorescence ratio": 0.973}]}]}
